# Experimental data from the supplement of paper PMC9135407.
# “And” between values parts separate entries of the source, which are not always exact repeats. Identical values can stand only once. Counter-ions that a name gives are not always drawn. About 620 (11%) of roughly 5,800 compounds showed activity.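 Rule for the calls: active = score above a cut-off or among the top three wells of a plate; in these data no inactive exceeds 0.85.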 The entries are a selection whose mix differs from that of the whole data set.
# Test system: primary human hepatic stellate cells (donor 1)
# Assay: scaled lipid accumulation score (0 = DMSO-like, 1 = nortriptyline-like); higher = stronger HSC inactivation (lipid re-accumulation), active = hit call of the paper
# Conditions: 48 h
# [1] = library stock concentration: 10 mM
# [2] = library stock concentration: 3.33 mM
# [3] = library stock concentration: 1 mM
# [4] = library stock concentration: 2 mM
smiles,measurement,setting,value
COCCNC(=O)COc1ccc(OCCNC[C@H](O)COc2ccccc2)cc1 [ZD 7114 hydrochloride],scaled lipid accumulation score,[1],inactive: 0.134
CCN(CC)CCCCNc1ncc2cc(-c3cc(OC)cc(OC)c3)c(NC(=O)NC(C)(C)C)nc2n1,scaled lipid accumulation score,[2],active: 1.34
same,scaled lipid accumulation score,[1],active: 1.01
CC(C)ON(CC(=O)NO)S(=O)(=O)c1ccc(-c2ccccc2)cc1,scaled lipid accumulation score,[3],inactive: ≤ 0
COc1cccc2c1[C@@H]1CN(CCCCn3c(=O)[nH]c4c(sc5ncc(-c6ccccc6)nc54)c3=O)C[C@@H]1CO2.Cl [Fiduxosin hydrochloride],scaled lipid accumulation score,[1],active: 0.863
Cc1[nH]c(/C=C2/C(=O)Nc3ccc(S(=O)(=O)N(C)c4cccc(Cl)c4)cc32)c(C)c1C(=O)N1CCN(C)CC1,scaled lipid accumulation score,[4],active: 0.927
same,scaled lipid accumulation score,[1],active: 1.14
CC(CNC1CCCCC1)OC(=O)c1ccccc1 (centres undefined) [Hexylcaine hydrochloride],scaled lipid accumulation score,,inactive: ≤ 0
Nc1ccc(S(=O)(=O)Nc2nccs2)cc1 [Sulfathiazole],scaled lipid accumulation score,,inactive: ≤ 0
same,scaled lipid accumulation score,[2],inactive: ≤ 0
same,scaled lipid accumulation score,library stock concentration: 7.8 mM,inactive: ≤ 0
same,scaled lipid accumulation score,[1],inactive: 0.008 and inactive: 0.022
O=C(O)c1cccc(-c2noc(-c3ccccc3F)n2)c1 [Ataluren (PTC124)],scaled lipid accumulation score,[2],inactive: ≤ 0
same,scaled lipid accumulation score,[1],inactive: ≤ 0
Cc1ccc(NC(=O)CCCCCC(=O)Nc2ccccc2N)cc1 [Pimelic Diphenylamide 106],scaled lipid accumulation score,[3],inactive: ≤ 0
O=C1C(Cl)=C(N2CCOCC2)C(=O)N1c1ccc(Cl)c(Cl)c1,scaled lipid accumulation score,[2],inactive: ≤ -0.009
same,scaled lipid accumulation score,[1],inactive: ≤ 0
CCN(CC)CCCCCCCCOC(=O)c1cc(OC)c(OC)c(OC)c1,scaled lipid accumulation score,library stock concentration: 12.6 mM,active: 1.02
Cc1ccc(-c2cc(C(F)(F)F)nn2-c2ccc(S(N)(=O)=O)cc2)cc1 [Celecoxib],scaled lipid accumulation score,[2],inactive: ≤ 0
same,scaled lipid accumulation score,library stock concentration: 5.2 mM,inactive: 0.389 and inactive: ≤ 0
CC(C)[N+]1(C)[C@@H]2CC[C@H]1C[C@@H](OC(=O)C(CO)c1ccccc1)C2 (some centres undefined) [Ipratropium bromide],scaled lipid accumulation score,,inactive: ≤ 0
same,scaled lipid accumulation score,library stock concentration: 4.9 mM,inactive: 0.021
same,scaled lipid accumulation score,[1],inactive: ≤ 0 and inactive: ≤ -0.07
CC(C)[N+]1(C)[C@@H]2CC[C@H]1C[C@@H](OC(=O)C(CO)c1ccccc1)C2 (some centres undefined) [Ipratropium Bromide],scaled lipid accumulation score,[2],inactive: ≤ 0
same,scaled lipid accumulation score,[1],inactive: ≤ 0 and inactive: 0.061
O=C(O)C1=C(CSc2nnnn2CS(=O)(=O)O)CS[C@@H]2[C@H](NC(=O)[C@H](O)c3ccccc3)C(=O)N12 [Cefonicid sodium],scaled lipid accumulation score,library stock concentration: 3.5 mM,inactive: ≤ 0
CCNC(=O)c1noc(-c2cc(C(C)C)c(O)cc2O)c1-c1ccc(CN2CCOCC2)cc1,scaled lipid accumulation score,[2],active: 0.91
CCOC(=O)[C@@H](C)Oc1cccc2c(=O)n(CC(=O)Nc3ccc4c(c3)OCCO4)ccc12,scaled lipid accumulation score,[1],inactive: 0.249
CCOC1O[C@H]([C@@H](COCc2ccccc2)OCc2ccccc2)[C@H](OCc2ccccc2)[C@H]1O (some centres undefined) [Tribenoside],scaled lipid accumulation score,,inactive: ≤ 0
C=C[C@]1(C)C[C@@H](OC(=O)CSC(C)(C)CNC(=O)[C@H](N)C(C)C)[C@]2(C)[C@H](C)CC[C@]3(CCC(=O)[C@H]32)[C@@H](C)[C@@H]1O [Valnemulin HCl],scaled lipid accumulation score,[2],inactive: ≤ 0
same,scaled lipid accumulation score,[1],inactive: 0.491
Cc1c(-c2ccc(O)cc2)n(Cc2ccc(OCCN3CCCCCC3)cc2)c2ccc(O)cc12 [Bazedoxifene HCl],scaled lipid accumulation score,[2],inactive: 0.681
same,scaled lipid accumulation score,[1],inactive: 0.477
CC(=O)Nc1c(I)c(C(=O)N[C@H]2C(O)O[C@H](CO)[C@@H](O)[C@@H]2O)c(I)c(N(C)C(C)=O)c1I (some centres undefined) [Metrizamide],scaled lipid accumulation score,,inactive: 0.054
NC[C@H](O)c1ccc(O)c(O)c1 [Norepinephrine],scaled lipid accumulation score,[1],inactive: ≤ 0
same,scaled lipid accumulation score,library stock concentration: 11.8 mM,inactive: 0.008
NC[C@H](O)c1ccc(O)c(O)c1 [Noradrenaline bitartrate monohydrate],scaled lipid accumulation score,[2],inactive: 0.001
same,scaled lipid accumulation score,[1],inactive: ≤ 0
CCN(CC)CCNC(=O)c1ccc(N)cc1 [Procainamide hydrochloride],scaled lipid accumulation score,,inactive: 0.054
same,scaled lipid accumulation score,[1],inactive: ≤ 0
CCN(CC)CCNC(=O)c1ccc(N)cc1 [Procainamide HCl],scaled lipid accumulation score,[2],inactive: ≤ 0
same,scaled lipid accumulation score,[1],inactive: ≤ -0.001
CCN(CC)CCNC(=O)c1ccc(N)cc1 [Pronestyl],scaled lipid accumulation score,[1],inactive: ≤ 0
c1ccc2c(c1)CC(N1CCN(c3cccc4c3OCCO4)CC1)C2,scaled lipid accumulation score,[1],inactive: 0.056
CC(=O)c1cc2ccccc2oc1=O [3-Acetylcoumarin],scaled lipid accumulation score,,inactive: ≤ 0
CC[C@H](CO)Nc1nc(Nc2cccc(-c3ccccn3)c2)c2ncn(C(C)C)c2n1 [(R)-DRF053 dihydrochloride],scaled lipid accumulation score,[1],inactive: 0.134
CCCCCCOc1ccccc1C(N)=O [Exalamide],scaled lipid accumulation score,[1],inactive: ≤ -0.027
Cc1nccn1CC1CCc2c(c3ccccc3n2C)C1=O (centres undefined),scaled lipid accumulation score,[1],inactive: ≤ 0
Cc1nccn1CC1CCc2c(c3ccccc3n2C)C1=O (centres undefined) [Ondansetron HCl],scaled lipid accumulation score,[2],inactive: ≤ 0
same,scaled lipid accumulation score,[1],inactive: ≤ 0
Cc1nccn1CC1CCc2c(c3ccccc3n2C)C1=O (centres undefined) [Ondansetron],scaled lipid accumulation score,library stock concentration: 6.8 mM,inactive: ≤ 0
same,scaled lipid accumulation score,[1],inactive: 0.202
Cc1nccn1CC1CCc2c(c3ccccc3n2C)C1=O (centres undefined) [Ondansetron Hydrochloride],scaled lipid accumulation score,,inactive: ≤ 0
NC(=O)c1cc[n+](CC2=C(C(=O)[O-])N3C(=O)[C@@H](NC(=O)Cc4cccs4)[C@H]3SC2)cc1 [Cefalonium],scaled lipid accumulation score,,inactive: ≤ 0
O=C1C(O)=C(O)C(=O)C(O)=C1O [Tetroquinone],scaled lipid accumulation score,[1],inactive: 0.14
same,scaled lipid accumulation score,library stock concentration: 11.6 mM,inactive: ≤ 0
"O=C1C(O)=C(O)C(=O)C(O)=C1O [Tetrahydroxy-1,4-quinone monohydrate]",scaled lipid accumulation score,,inactive: ≤ 0
O=c1c2ccccc2[nH]c(=S)n1CCN1CCC(=C(c2ccc(F)cc2)c2ccc(F)cc2)CC1 [Diacylglycerol Kinase Inhibitor II],scaled lipid accumulation score,[2],inactive: 0.024
same,scaled lipid accumulation score,[1],inactive: 0.091
O=c1c2ccccc2[nH]c(=S)n1CCN1CCC(=C(c2ccc(F)cc2)c2ccc(F)cc2)CC1,scaled lipid accumulation score,library stock concentration: 80 uM,inactive: ≤ -0.001
same,scaled lipid accumulation score,library stock concentration: 400 uM,inactive: ≤ -0.001
same,scaled lipid accumulation score,[4],inactive: ≤ -0.001
same,scaled lipid accumulation score,[1],inactive: ≤ -0.001
CC(=O)NC[C@H]1CN(c2ccc(N3CCOCC3)c(F)c2)C(=O)O1 [Linezolid],scaled lipid accumulation score,[2],inactive: ≤ 0
same,scaled lipid accumulation score,library stock concentration: 5.9 mM,inactive: ≤ -0.006
same,scaled lipid accumulation score,[1],inactive: ≤ 0 and inactive: 0.023
CC(=O)NC[C@H]1CN(c2ccc(N3CCOCC3)c(F)c2)C(=O)O1,scaled lipid accumulation score,[1],inactive: ≤ 0
O=C(NCCCNc1nc(Nc2cccc(NC(=O)N3CCCC3)c2)ncc1I)c1cccs1,scaled lipid accumulation score,[1],active: 1.07
Cc1c2oc3c(C)ccc(C(=O)N[C@@H]4C(=O)N[C@H](C(C)C)C(=O)N5CCC[C@H]5C(=O)N(C)CC(=O)N(C)[C@@H](C(C)C)C(=O)O[C@@H]4C)c3nc-2c(C(=O)N[C@@H]2C(=O)N[C@H](C(C)C)C(=O)N3CCC[C@H]3C(=O)N(C)CC(=O)N(C)[C@@H](C(C)C)C(=O)O[C@@H]2C)c(N)c1=O,scaled lipid accumulation score,[1],inactive: ≤ 0
Cc1c2oc3c(C)ccc(C(=O)N[C@@H]4C(=O)N[C@H](C(C)C)C(=O)N5CCC[C@H]5C(=O)N(C)CC(=O)N(C)[C@@H](C(C)C)C(=O)O[C@@H]4C)c3nc-2c(C(=O)N[C@@H]2C(=O)N[C@H](C(C)C)C(=O)N3CCC[C@H]3C(=O)N(C)CC(=O)N(C)[C@@H](C(C)C)C(=O)O[C@@H]2C)c(N)c1=O [Dactinomycin],scaled lipid accumulation score,library stock concentration: 1.6 mM,inactive: 0.047
same,scaled lipid accumulation score,[1],inactive: ≤ 0
Cc1c2oc3c(C)ccc(C(=O)N[C@@H]4C(=O)N[C@H](C(C)C)C(=O)N5CCC[C@H]5C(=O)N(C)CC(=O)N(C)[C@@H](C(C)C)C(=O)O[C@@H]4C)c3nc-2c(C(=O)N[C@@H]2C(=O)N[C@H](C(C)C)C(=O)N3CCC[C@H]3C(=O)N(C)CC(=O)N(C)[C@@H](C(C)C)C(=O)O[C@@H]2C)c(N)c1=O [Actinomycin D],scaled lipid accumulation score,,inactive: ≤ -0.021
CCSC(N)=Nc1ccc(C(F)(F)F)cc1,scaled lipid accumulation score,[3],inactive: 0.01
COc1ccc2c(c1)c(CC(=O)OCC(=O)O)c(C)n2C(=O)c1ccc(Cl)cc1 [Acemetacin],scaled lipid accumulation score,,inactive: ≤ 0
same,scaled lipid accumulation score,[2],inactive: ≤ 0
same,scaled lipid accumulation score,library stock concentration: 4.8 mM,inactive: ≤ 0
same,scaled lipid accumulation score,[1],inactive: ≤ 0 and inactive: 0.005
COc1ccc2cc3[n+](cc2c1OC)CCc1cc2c(cc1-3)OCO2 [Berberine HCl],scaled lipid accumulation score,[2],inactive: ≤ 0
same,scaled lipid accumulation score,[1],inactive: ≤ 0
COc1ccc2cc3[n+](cc2c1OC)CCc1cc2c(cc1-3)OCO2 [Berberine chloride],scaled lipid accumulation score,,inactive: ≤ 0
same,scaled lipid accumulation score,[1],inactive: ≤ 0
CCCCCCCCCCCCCCCCOC[C@H](COP(=O)([O-])OCC[N+](C)(C)C)OC(=O)CCC [Butanoyl PAF],scaled lipid accumulation score,[3],inactive: ≤ 0
"CC[C@@H]1Cc2cc(O)ccc2C2=C1c1ccc(O)cc1C[C@H]2CC [(R,R)-cis-Diethyl tetrahydro-2,8-chrysenediol]",scaled lipid accumulation score,[1],inactive: ≤ -0.07
Nc1ncnc2c1ncn2[C@@H]1O[C@H](CO)C[C@H]1O [Cordycepin],scaled lipid accumulation score,[1],inactive: 0.004
Cn1sc(=O)n(Cc2ccccc2)c1=O [GSK-3b Inhibitor I],scaled lipid accumulation score,[2],inactive: ≤ 0
CNCCCC12CCC(c3ccccc31)c1ccccc12.Cl [Maprotiline hydrochloride],scaled lipid accumulation score,[1],active: 1.59
CC(C)Cn1c(=O)n(C)c(=O)c2nc[nH]c21 [Isobutylmethylxanthine],scaled lipid accumulation score,library stock concentration: 9 mM,inactive: ≤ 0
Cc1cccc(C)c1NC(=O)C[N+](C)(C)C,scaled lipid accumulation score,[1],inactive: 0.024
Cc1nc2ccc(-n3ncc(C(=O)c4cc5ccccc5[nH]4)c3N)cc2[nH]1,scaled lipid accumulation score,[1],active: 0.907
